In the BET-seq Pho4 binding data (Le et al. 2018):
The list shows a part of the results. Values were computed here from the reads of four pooled replicates and scatter widely.

target: T1, Pho4 (S. cerevisiae) (UniProt P07270); assay: relative binding free energy (BET-seq); higher = weaker binding; settings: reference: library average
T1 sequence: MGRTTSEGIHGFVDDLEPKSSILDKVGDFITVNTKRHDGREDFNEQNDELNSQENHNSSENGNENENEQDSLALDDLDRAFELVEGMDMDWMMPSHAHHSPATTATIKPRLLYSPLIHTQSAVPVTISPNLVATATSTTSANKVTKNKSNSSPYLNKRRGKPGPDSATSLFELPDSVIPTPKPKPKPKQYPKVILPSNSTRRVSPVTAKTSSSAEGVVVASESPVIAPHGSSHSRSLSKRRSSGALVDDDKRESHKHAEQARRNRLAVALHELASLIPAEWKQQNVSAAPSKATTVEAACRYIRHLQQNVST

Sequence | relative binding free energy
GAATACACGTGGTTTA | 0.08 kcal/mol
GACAGCACGTGGTGTT | -0.19 kcal/mol
ATGGTCACGTGGTTCA | 0.06 kcal/mol
ATAGGCACGTGGTCAG | -0.27 kcal/mol
TCGGGCACGTGGTCCG | -0.11 kcal/mol
GAGTACACGTGGTGGC | 0.1 kcal/mol
GTGTGCACGTGTGCGT | 0.09 kcal/mol
TTGCGCACGTGATCGG | -0.08 kcal/mol
CGGGTCACGTGGGGCG | -0.04 kcal/mol
GGCTGCACGTGTGGCG | 0.03 kcal/mol
GACGTCACGTGTATGT | 0.08 kcal/mol
GATATCACGTGTTTAA | 0.15 kcal/mol
GTTATCACGTGTAAAT | 0.16 kcal/mol
TCGTTCACGTGGTAGT | 0.24 kcal/mol
GAGTTCACGTGTATTA | 0.23 kcal/mol
ATTTCCACGTGGATTG | 0.03 kcal/mol
ATTAACACGTGATGGT | 0.15 kcal/mol
TAAAACACGTGGTGTT | -0.08 kcal/mol
CTTTACACGTGTGTGA | 0 kcal/mol
GTAGGCACGTGGACGG | -0.04 kcal/mol
TAACTCACGTGTGGGG | 0.18 kcal/mol
ATGTGCACGTGATTAA | 0.06 kcal/mol
AAAATCACGTGTTGGG | 0.16 kcal/mol
AGCGGCACGTGCTAGG | -0.23 kcal/mol
CTTGTCACGTGAATGG | 0.2 kcal/mol

Sequence | relative binding free energy
CTTGGCACGTGCTTGT | -0.13 kcal/mol
CTGTGCACGTGCGTGA | -0.03 kcal/mol
AGGTGCACGTGCGCTG | -0.21 kcal/mol
TCTGGCACGTGTAGGT | -0.09 kcal/mol
TCGGGCACGTGTGTGG | -0.09 kcal/mol
GGTTTCACGTGATATG | 0.35 kcal/mol
AAGATCACGTGTTAGA | 0.18 kcal/mol
ATGGTCACGTGGAAAA | 0.26 kcal/mol
GTCTTCACGTGTTGTA | 0.27 kcal/mol
TTGGACACGTGGGCAT | -0.05 kcal/mol
CGGTGCACGTGTGTCT | 0.03 kcal/mol
TTGTTCACGTGGGTAC | 0.14 kcal/mol
AGAATCACGTGGGGGA | 0 kcal/mol
GTCTACACGTGGGTTG | -0.09 kcal/mol
ATAGCCACGTGCGGGT | -0.11 kcal/mol
GCGGGCACGTGAGCGG | 0.14 kcal/mol
CGTGACACGTGGTATG | -0.14 kcal/mol
TTTTGCACGTGATTGT | 0.16 kcal/mol
GTGGTCACGTGGCAGT | 0.05 kcal/mol
TTTTGCACGTGCTATT | -0.11 kcal/mol
TAGGACACGTGGAGGG | 0.01 kcal/mol
CTAGTCACGTGAGGAG | 0.36 kcal/mol
GGATTCACGTGGAATG | 0.33 kcal/mol
TGTTTCACGTGTGTCA | 0.33 kcal/mol
ACGTGCACGTGGGTTA | -0.18 kcal/mol

Sequence | relative binding free energy
GTAATCACGTGTGTCG | 0.25 kcal/mol
GTGAGCACGTGTCGTG | -0.11 kcal/mol
GGCCGCACGTGAGGTT | 0.13 kcal/mol
GGTCTCACGTGGGGCA | 0.15 kcal/mol
GATAGCACGTGATGAT | 0.22 kcal/mol
TTAGGCACGTGTGCTA | -0.2 kcal/mol
GGTATCACGTGTTCAT | 0.05 kcal/mol
AAAAGCACGTGTGCGT | -0.04 kcal/mol
TGCCTCACGTGGGGTG | 0.05 kcal/mol
TAATGCACGTGGCGGG | -0.09 kcal/mol
GTTGTCACGTGAGTGC | 0.2 kcal/mol
CACGTCACGTGTGGTA | 0.12 kcal/mol
ATTCTCACGTGGTTGC | 0.23 kcal/mol
AATGTCACGTGTTGGA | 0.14 kcal/mol
GTTGTCACGTGAGATA | 0.26 kcal/mol
TGAGTCACGTGTAGAA | 0.12 kcal/mol
TTATTCACGTGCGCTT | 0.05 kcal/mol
AAGTCCACGTGGGTGA | -0.07 kcal/mol
GAGTTCACGTGAAGGT | 0.43 kcal/mol
GTTTACACGTGCGAGT | 0.12 kcal/mol
GGATTCACGTGCAGGT | 0.26 kcal/mol
GAATTCACGTGTGTTT | 0.28 kcal/mol
TTATTCACGTGGCCGT | 0.34 kcal/mol
GAGGGCACGTGTGCTG | -0.11 kcal/mol
ATGGTCACGTGGCGTC | 0.12 kcal/mol

Sequence | relative binding free energy
TCTAGCACGTGGAGGA | -0.02 kcal/mol
CGGGTCACGTGTTCTG | 0.24 kcal/mol
TCGCTCACGTGTGGTT | 0.23 kcal/mol
GTTTACACGTGGAAGT | 0.15 kcal/mol
ATATACACGTGACGGT | 0.13 kcal/mol
ATGATCACGTGGGTAC | -0.05 kcal/mol
AGTAGCACGTGGTGTA | -0.27 kcal/mol
ATCTTCACGTGATTTT | 0.22 kcal/mol
TGGGCCACGTGCAGGG | -0.17 kcal/mol
GTGATCACGTGTATTT | 0.09 kcal/mol
TTATTCACGTGTGGGC | 0.17 kcal/mol
ATTGACACGTGTGGTA | 0.06 kcal/mol
AGGTTCACGTGACTTT | 0.34 kcal/mol
ATATGCACGTGGTTCA | -0.16 kcal/mol
TGTGACACGTGTGAGT | 0.01 kcal/mol
ATTGGCACGTGGGCGC | -0.2 kcal/mol
GTATTCACGTGATCTT | 0.2 kcal/mol
CTTGTCACGTGTCATG | 0.07 kcal/mol
TGTGGCACGTGATGCC | -0.09 kcal/mol
TCAAGCACGTGTGGAT | 0.02 kcal/mol
TTTTTCACGTGTAGAT | 0.51 kcal/mol
GTAGACACGTGATGGG | 0.09 kcal/mol
TCGGGCACGTGTCGAG | 0.02 kcal/mol
GGAATCACGTGTGTTC | 0.23 kcal/mol
GAATACACGTGTTGTA | 0.12 kcal/mol

Sequence | relative binding free energy
TGATACACGTGACGGG | 0.14 kcal/mol
GTGGACACGTGGGGTG | -0.11 kcal/mol
TGGGGCACGTGTCTGT | -0.11 kcal/mol
CTGGTCACGTGGGAGG | 0.07 kcal/mol
GGTGTCACGTGATGGC | 0.21 kcal/mol
TATGACACGTGTGAGT | 0.19 kcal/mol
TTTCGCACGTGGTACG | -0.16 kcal/mol
TGCGTCACGTGCTTAG | -0.04 kcal/mol
TAGCGCACGTGTTGAT | -0.08 kcal/mol
ATTGGCACGTGATAAT | 0.04 kcal/mol
GGGCACACGTGAGTGA | 0.34 kcal/mol
TATTGCACGTGGAACG | 0.05 kcal/mol
TTGGTCACGTGGCTCG | 0 kcal/mol
ATGGGCACGTGTCGTA | -0.12 kcal/mol
ATGTCCACGTGAGTTT | 0.14 kcal/mol
TACGGCACGTGCGGTT | -0.05 kcal/mol
AAGAGCACGTGTGTTG | -0.07 kcal/mol
GGGGCCACGTGTATGT | -0.06 kcal/mol
TTGCACACGTGGTTAG | -0.14 kcal/mol
TCAGGCACGTGTGGCA | -0.08 kcal/mol
AGGTACACGTGTAGGC | 0.13 kcal/mol
AATGTCACGTGAATTA | 0.3 kcal/mol
AATCTCACGTGTTTGA | 0.24 kcal/mol
TGGGACACGTGTGGCG | -0.01 kcal/mol
GTACGCACGTGTTAGT | -0.07 kcal/mol

Sequence | relative binding free energy
GACGTCACGTGGTTGA | 0.15 kcal/mol
GAGTCCACGTGTGTTA | 0.22 kcal/mol
TGTTACACGTGAGTGG | 0.27 kcal/mol
TGCGTCACGTGGCGGG | -0.07 kcal/mol
TTTTGCACGTGTTTCC | 0.04 kcal/mol
TAAGGCACGTGAAGGT | 0.24 kcal/mol
GTGTACACGTGATGGA | 0.27 kcal/mol
TTGTACACGTGCGTCG | -0.06 kcal/mol
AAGGGCACGTGGTGAC | -0.19 kcal/mol
GTCTTCACGTGTGTAG | 0.3 kcal/mol
ATTTGCACGTGCGTAT | -0.04 kcal/mol
TTAAACACGTGATGGC | 0.25 kcal/mol
TTGATCACGTGCTTGG | -0.01 kcal/mol
GGGGGCACGTGTCAAA | 0.05 kcal/mol
GTCATCACGTGGGATG | 0.12 kcal/mol
GTTAACACGTGGCTGG | 0.07 kcal/mol
GTGTGCACGTGGATAA | 0.05 kcal/mol
AGGTACACGTGATTTT | 0.23 kcal/mol
GCAGGCACGTGTATGG | -0.07 kcal/mol
AAGGGCACGTGGGGCG | -0.27 kcal/mol
TTCGGCACGTGAAATT | 0.17 kcal/mol
